# Results from the supplement of paper PMC8728848.
# This is one part of the list.
# What was measured:
# Assay in all cases: glycan array binding signal (z-score within array); higher = stronger binding
# Details in all cases: glycan notation: IUPAC condensed, linker removed
# Glc(b1-4)Glc = biological target: Glc(b1-4)Glc
# Summary of the method: (§1)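 The binding signal is a Z-score computed within each array. Data were drawn from 3228 arrays in the Consortium for Functional Glycomics database, restricted to those with a known protein sequence. Scores were averaged over arrays of the same protein sequence at different concentrations or buffers, and over linkers, and negative values can be taken as non-binding.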
# Glc(b1-6)Glc = biological target: Glc(b1-6)Glc
# Summary of the method: as §1
# GlcA(b1-3)Gal = biological target: GlcA(b1-3)Gal
# Summary of the method: as §1
# GlcA(b1-3)GlcNAc = biological target: GlcA(b1-3)GlcNAc
# Summary of the method: as §1
# GlcA(b1-6)Gal = biological target: GlcA(b1-6)Gal
# Summary of the method: as §1
# [1] = biological target: GlcNAc(a1-3)Gal(b1-4)GlcNAc
# Summary of the method: as §1
# [2] = biological target: GlcNAc(a1-6)Gal(b1-4)GlcNAc
# Summary of the method: as §1
# [3] = biological target: GlcNAc(b1-2)Gal(b1-3)GalNAc
# Summary of the method: as §1
# [4] = biological target: GlcNAc(b1-2)Man(a1-3)[GlcNAc(b1-2)Man(a1-6)]Man(b1-4)GlcNAc(b1-4)GlcNAc
# Summary of the method: as §1
# GlcNAc(b1-3)Gal = biological target: GlcNAc(b1-3)Gal
# Summary of the method: as §1
# [5] = biological target: GlcNAc(b1-3)Gal(b1-3)GalNAc
# Summary of the method: as §1
# GlcNAc(b1-3)Gal(b1-4)Glc = biological target: GlcNAc(b1-3)Gal(b1-4)Glc
# Summary of the method: as §1
# [6] = biological target: GlcNAc(b1-3)Gal(b1-4)GlcNAc
# Summary of the method: as §1
# [7] = biological target: GlcNAc(b1-3)Gal(b1-4)GlcNAc(b1-3)Gal(b1-4)GlcNAc
# Summary of the method: as §1
# GlcNAc(b1-3)GalNAc = biological target: GlcNAc(b1-3)GalNAc
# Summary of the method: as §1
# GlcNAc(b1-3)Man = biological target: GlcNAc(b1-3)Man
# Summary of the method: as §1
# [8] = biological target: GlcNAc(b1-3)[GlcNAc(b1-4)][GlcNAc(b1-6)]GlcNAc
# Summary of the method: as §1
# [9] = biological target: GlcNAc(b1-3)[GlcNAc(b1-6)]Gal(b1-4)GlcNAc
# Summary of the method: as §1
# [10] = biological target: GlcNAc(b1-3)[GlcNAc(b1-6)]GalNAc
# Summary of the method: as §1
# [11] = biological target: GlcNAc(b1-3)[GlcNAc(b1-6)]GlcNAc(b1-4)GlcNAc
# Summary of the method: as §1
# [12] = biological target: GlcNAc(b1-4)Gal(b1-4)GlcNAc
# Summary of the method: as §1
# GlcNAc(b1-4)GlcNAc = biological target: GlcNAc(b1-4)GlcNAc
# Summary of the method: as §1
# [13] = biological target: GlcNAc(b1-4)GlcNAc(b1-4)GlcNAc
# Summary of the method: as §1
# [14] = biological target: GlcNAc(b1-4)GlcNAc(b1-4)GlcNAc(b1-4)GlcNAc(b1-4)GlcNAc
# Summary of the method: as §1
# [15] = biological target: GlcNAc(b1-4)GlcNAc(b1-4)GlcNAc(b1-4)GlcNAc(b1-4)GlcNAc(b1-4)GlcNAc
# Summary of the method: as §1
# [16] = biological target: GlcNAc(b1-4)[GlcNAc(b1-6)]GalNAc
# Summary of the method: as §1
# [17] = biological target: GlcNAc(b1-6)Gal(b1-4)GlcNAc
# Summary of the method: as §1
# GlcNAc(b1-6)GalNAc = biological target: GlcNAc(b1-6)GalNAc
# Summary of the method: as §1
# GlcNAc3Prop(b1-4)GlcNAc = biological target: GlcNAc3Prop(b1-4)GlcNAc
# Summary of the method: as §1
# Kdn(a2-3)Gal(b1-3)GlcNAc = biological target: Kdn(a2-3)Gal(b1-3)GlcNAc
# Summary of the method: as §1
# Kdn(a2-3)Gal(b1-4)GlcNAc = biological target: Kdn(a2-3)Gal(b1-4)GlcNAc
# Summary of the method: as §1
# [18] = biological target: Man(a1-2)Man(a1-2)Man(a1-3)Man
# Summary of the method: as §1
# [19] = biological target: Man(a1-2)Man(a1-2)Man(a1-6)[Man(a1-3)]Man
# Summary of the method: as §1
# Man(a1-2)Man(a1-3)Man = biological target: Man(a1-2)Man(a1-3)Man
# Summary of the method: as §1
# [20] = biological target: Man(a1-2)Man(a1-3)[Man(a1-2)Man(a1-6)]Man
# Summary of the method: as §1
# [21] = biological target: Man(a1-2)Man(a1-3)[Man(a1-2)Man(a1-6)]Man(a1-6)[Man(a1-2)Man(a1-2)Man(a1-3)]Man
# Summary of the method: as §1
# [22] = biological target: Man(a1-2)Man(a1-3)[Man(a1-2)Man(a1-6)]Man(a1-6)[Man(a1-2)Man(a1-2)Man(a1-3)]Man(b1-4)GlcNAc(b1-4)GlcNAc
# Summary of the method: as §1
# [23] = biological target: Man(a1-2)Man(a1-3)[Man(a1-2)Man(a1-6)]Man(a1-6)[Man(a1-3)[Man(a1-6)]Man(a1-6)]Man(b1-4)GlcNAc(b1-4)GlcNAc
# Summary of the method: as §1
# [24] = biological target: Man(a1-2)Man(a1-3)[Man(a1-6)]Man(a1-6)[Man(a1-2)Man(a1-3)]Man(b1-4)GlcNAc(b1-4)GlcNAc
# Summary of the method: as §1
binder,measurement,setting,value
CD83 (Homo sapiens) (protein) MSRGLQLLLLSCAYSLAPATPEVKVACSEDVDLPCTAPWDPQVPYTVSWVKLLEGGEERMETPQEDHLRGQHYHQKGQNGSFDAPNERPYSLKIRNTTSCNSGTYRCTLQDPDGQRNLSGKVILRVTGCPAQRKEETFKKYRAETSEQKLISEEDLSRGSDDDDKAEPRGP,glycan array binding signal (z-score),Glc(b1-4)Glc,-0.371
same,glycan array binding signal (z-score),Glc(b1-6)Glc,-0.153
same,glycan array binding signal (z-score),GlcA(b1-3)Gal,-0.045
same,glycan array binding signal (z-score),GlcA(b1-3)GlcNAc,0.06
same,glycan array binding signal (z-score),GlcA(b1-6)Gal,-0.18
same,glycan array binding signal (z-score),[1],-0.289
same,glycan array binding signal (z-score),[2],-0.256
same,glycan array binding signal (z-score),[3],-0.273
same,glycan array binding signal (z-score),[4],-0.146
same,glycan array binding signal (z-score),GlcNAc(b1-3)Gal,-0.447
same,glycan array binding signal (z-score),[5],-0.182
same,glycan array binding signal (z-score),GlcNAc(b1-3)Gal(b1-4)Glc,-0.248
same,glycan array binding signal (z-score),[6],-0.162
same,glycan array binding signal (z-score),[7],-0.187
same,glycan array binding signal (z-score),GlcNAc(b1-3)GalNAc,-0.264
same,glycan array binding signal (z-score),GlcNAc(b1-3)Man,-0.188
same,glycan array binding signal (z-score),[8],0.09
same,glycan array binding signal (z-score),[9],-0.131
same,glycan array binding signal (z-score),[10],-0.453
same,glycan array binding signal (z-score),[11],-0.62
same,glycan array binding signal (z-score),[12],0.024
same,glycan array binding signal (z-score),GlcNAc(b1-4)GlcNAc,-0.248
same,glycan array binding signal (z-score),[13],-0.372
same,glycan array binding signal (z-score),[14],0.065
same,glycan array binding signal (z-score),[15],0.143
same,glycan array binding signal (z-score),[16],-0.429
same,glycan array binding signal (z-score),[17],-0.188
same,glycan array binding signal (z-score),GlcNAc(b1-6)GalNAc,-0.436
same,glycan array binding signal (z-score),GlcNAc3Prop(b1-4)GlcNAc,-0.313
same,glycan array binding signal (z-score),Kdn(a2-3)Gal(b1-3)GlcNAc,-0.365
same,glycan array binding signal (z-score),Kdn(a2-3)Gal(b1-4)GlcNAc,0.312
same,glycan array binding signal (z-score),[18],0.605
same,glycan array binding signal (z-score),[19],-0.333
same,glycan array binding signal (z-score),Man(a1-2)Man(a1-3)Man,-0.122
same,glycan array binding signal (z-score),[20],-0.021
same,glycan array binding signal (z-score),[21],-0.09
same,glycan array binding signal (z-score),[22],2.96
same,glycan array binding signal (z-score),[23],2.48
same,glycan array binding signal (z-score),[24],0.888
